# The other results are listed elsewhere or left out.
# What was measured:
# HSkMC = human skeletal muscle cells; assay: cytotoxicity call (relative viability < 0.9); details: 10 µM
# HepG2 = assay: cytotoxicity call (relative viability < 0.9); details: 10 µM
# S. aureus RN4220 = assay: growth inhibition call (relative growth <= 0.2); details: 50 µM
Structure (SMILES),cytotoxicity call (HSkMC),cytotoxicity call (HepG2),growth inhibition call (S. aureus RN4220)
C[C@@H]1CCCCO[C@H](CN(C)Cc2ccc(C(=O)O)cc2)[C@H](C)CN([C@@H](C)CO)C(=O)c2cc(NC(=O)Nc3ccc4c(c3)OCO4)ccc2O1,inactive,inactive,inactive
C[C@H](CO)N1C[C@H](C)[C@H](CN(C)Cc2ccc(C(=O)O)cc2)OCCCC[C@H](C)Oc2ccc(NC(=O)C3CCCCC3)cc2C1=O,inactive,inactive,inactive
CN1CCN(C(=O)C[C@@H]2C[C@@H]3c4cc(NC(=O)c5ccc6c(c5)OCO6)ccc4O[C@@H]3[C@@H](CO)O2)CC1,inactive,inactive,inactive
C[C@H]1CN([C@@H](C)CO)C(=O)Cc2cc(NC(=O)Nc3ccc(F)cc3)ccc2O[C@@H]1CN(C)CC1CCCCC1,inactive,active,inactive
Cc1ccc(S(=O)(=O)Nc2cccc3c2O[C@H](CN(C)C(=O)Nc2ccc(C(F)(F)F)cc2)[C@@H](C)CN([C@H](C)CO)C3=O)cc1,inactive,inactive,inactive
COc1ccc(NC(=O)N(C)C[C@@H]2OCc3ccccc3-c3c(n(C)c4ccccc34)C(=O)N([C@@H](C)CO)C[C@H]2C)c(OC)c1,inactive,inactive,inactive
C#CCN([C@H](/C=C/C1CC1)[C@@H](O)CCn1cc(-c2ccc(C(=O)NO)s2)nn1)[C@@H](Cc1ccccc1)C(=O)OC,inactive,inactive,inactive
C[C@@H]1CN([C@@H](C)CO)C(=O)c2cc(NC(=O)Nc3ccc(C(F)(F)F)cc3)ccc2O[C@@H]1CN(C)CC1CCCCC1,active,active,inactive
Cc1noc(C)c1S(=O)(=O)Nc1ccc2c(c1)CC(=O)N([C@@H](C)CO)C[C@H](C)[C@@H](CN(C)Cc1ccncc1)O2,inactive,inactive,inactive
C[C@@H]1CCCCO[C@@H](CN(C)C(=O)Nc2ccc(C(F)(F)F)cc2)[C@H](C)CN([C@H](C)CO)C(=O)c2cc(NC(=O)NC3CCCCC3)ccc2O1,inactive,active,inactive
C[C@@H]1CN([C@@H](C)CO)C(=O)c2cc(NC(=O)Cc3ccccc3)ccc2O[C@@H](C)CCCCO[C@@H]1CN(C)C(=O)Nc1cccc2ccccc12,inactive,active,inactive
Cc1ccc(S(=O)(=O)Nc2cccc3c2O[C@H](CN(C)S(=O)(=O)c2cn(C)cn2)[C@@H](C)CN([C@H](C)CO)C3=O)cc1,inactive,inactive,inactive
CC(O)Cn1cnc2c1c(=O)n(C)c(=O)n2C (stereo unspecified),inactive,inactive,inactive
CC(=O)Oc1cc(-c2coc3cc(OC(C)=O)c(OC(C)=O)c(OC(C)=O)c3c2=O)cc(OC(C)=O)c1OC(C)=O,inactive,inactive,inactive
C[C@](N)(Cc1ccc(O)c(O)c1)C(=O)O,inactive,active,inactive
C[C@@H]1CN([C@H](C)CO)C(=O)Cc2cc(NC(=O)Nc3ccc4c(c3)OCO4)ccc2O[C@@H]1CN(C)Cc1ccc(Oc2ccccc2)cc1,inactive,active,inactive
COc1ccc(S(=O)(=O)N(C)C[C@@H]2Oc3ccc(NC(=O)Cn4cnnn4)cc3C(=O)N([C@H](C)CO)C[C@@H]2C)cc1,inactive,inactive,inactive
COc1ccc(NC(=O)Nc2ccc3c(c2)C(=O)N([C@H](C)CO)C[C@H](C)[C@H](CN(C)Cc2ccccc2)OCCCC[C@@H](C)O3)cc1,inactive,inactive,inactive
O=C(CCCCCCC(=O)Nc1ccccc1O)N/N=C/c1cc(Br)c(O)c(Br)c1,inactive,inactive,inactive
C[C@@H]1CCCCO[C@@H](CN(C)C(=O)NC2CCCCC2)[C@@H](C)CN([C@@H](C)CO)C(=O)c2cc(NC(=O)Nc3ccc(F)cc3)ccc2O1,inactive,inactive,inactive
Cn1c(=O)[nH]c2ccccc21,inactive,inactive,inactive
C[C@@H]1CN([C@@H](C)CO)C(=O)c2cc(NC(=O)Nc3ccc4c(c3)OCO4)ccc2O[C@@H]1CN(C)Cc1ccc(C(=O)Nc2ccccc2N)cc1,inactive,inactive,inactive
O=C(CN1CCOCC1)NCC[C@@H]1CC[C@H](NC(=O)Nc2ccccc2)[C@H](CO)O1,inactive,inactive,inactive
CO[C@H]1C[C@@H]2CC[C@@H](C)[C@@](O)(O2)C(=O)C(=O)N2CCCC[C@@H]2C(=O)O[C@H]([C@H](C)C[C@@H]2CC[C@@H](O)[C@H](OC)C2)CC(=O)[C@H](C)/C=C(\C)[C@@H](O)[C@@H](OC)C(=O)[C@H](C)C[C@H](C)/C=C/C=C/C=C/1C,inactive,inactive,inactive
CC(C(=O)O)C(=O)O,inactive,inactive,inactive
CC(=C(CCOP(=O)(O)O)SC(=O)c1ccccc1)N(C=O)Cc1cnc(C)nc1N,inactive,inactive,inactive

Structure (SMILES),cytotoxicity call (HSkMC),cytotoxicity call (HepG2),growth inhibition call (S. aureus RN4220)
C[C@H]1CCCCO[C@H](CN(C)C(=O)Nc2ccc3c(c2)OCO3)[C@@H](C)CN([C@@H](C)CO)C(=O)c2cc(NS(=O)(=O)c3ccc(F)cc3)ccc2O1,inactive,inactive,inactive
Cc1noc(C)c1NC(=O)N(C)C[C@@H]1OCCCC[C@H](C)Oc2ccc(NC(=O)Nc3ccccc3)cc2C(=O)N([C@H](C)CO)C[C@@H]1C,inactive,inactive,inactive
C[C@H]1CCCCO[C@H](CN(C)C(=O)Nc2ccc3c(c2)OCO3)[C@@H](C)CN([C@@H](C)CO)C(=O)c2cc(NC(=O)Nc3ccccc3)ccc2O1,inactive,inactive,inactive
CC(=O)n1cc([C@@H]2C=C(C(=O)N3CCOCC3)O[C@H](OCCCCOC(=O)NCCCCCC(=O)NO)C2)c2ccccc21,inactive,inactive,inactive
COCCCNC(=O)[C@@]1(CCS(=O)(=O)c2ccccc2)COC(c2ccc(OCCCO)cc2)=N1,inactive,inactive,inactive
O=C(C[C@H]1C=C[C@@H](NS(=O)(=O)c2ccc(F)cc2)[C@H](CO)O1)NCc1ccc(Cl)c(Cl)c1,inactive,inactive,inactive
C[C@@H]1CN([C@@H](C)CO)C(=O)c2cccc(NC(=O)NC3CCCCC3)c2O[C@H]1CN(C)Cc1ccc(-c2ccccc2)cc1,inactive,inactive,inactive
CC(C)NC(=O)Nc1ccc2c(c1)C(=O)N([C@H](C)CO)C[C@H](C)[C@H](CN(C)Cc1ccc(C(F)(F)F)cc1)OCCCC[C@@H](C)O2,inactive,inactive,inactive
Cc1noc(C)c1NC(=O)N(C)C[C@H]1Oc2ccc(NC(=O)Nc3ccc(C(F)(F)F)cc3)cc2C(=O)N([C@H](C)CO)C[C@H]1C,inactive,inactive,inactive
C=CCC[C@H](Cc1ccc(F)cc1)C(=O)OC[C@@H]1CCCN1C(=O)[C@@H](CC=C)CC(=O)N(CCO)Cc1ccccc1,active,inactive,inactive
CS(=O)(=O)N1[C@@H]2c3ccc(-c4ccc(F)cc4)c(=O)n3C[C@H]1[C@H](CO)[C@H]2C(=O)N1CCOCC1,inactive,inactive,inactive
O=C(C[C@@H]1C=C[C@@H](NC(=O)c2cccc(F)c2)[C@@H](CO)O1)NCCN1CCCC1,inactive,inactive,inactive
C[C@@H]1CCCCO[C@H](CN(C)S(=O)(=O)c2cn(C)cn2)[C@@H](C)CN([C@H](C)CO)C(=O)c2cc(NC(=O)Nc3ccc(C(F)(F)F)cc3)ccc2O1,inactive,inactive,inactive
COc1ccc(C#Cc2ccc3c(c2)O[C@@H](CN(C)C(=O)c2ccccn2)[C@@H](C)CN([C@H](C)CO)S3(=O)=O)cc1,inactive,inactive,inactive
COc1cccc(S(=O)(=O)N(C)C[C@H]2Oc3cc(C#CCN(C)C)ccc3S(=O)(=O)N([C@H](C)CO)C[C@@H]2C)c1,inactive,inactive,inactive
C[C@H]1CCCCO[C@H](CN(C)CC2CC2)[C@@H](C)CN([C@@H](C)CO)C(=O)c2cc(NC(=O)Nc3ccc4c(c3)OCO4)ccc2O1,inactive,inactive,inactive
Cc1noc(C)c1S(=O)(=O)N(C)C[C@H]1Oc2ccc(NC(=O)CCC(F)(F)F)cc2CC(=O)N([C@@H](C)CO)C[C@H]1C,inactive,inactive,inactive
COc1ccc(CN(C)C[C@@H]2OCCCC[C@H](C)Oc3ccc(NC(=O)C4CCCCC4)cc3C(=O)N([C@@H](C)CO)C[C@@H]2C)cc1,inactive,inactive,inactive
Cc1noc(C)c1S(=O)(=O)N(C)C[C@H]1Oc2ccc(NC(=O)Nc3ccccc3)cc2CC(=O)N([C@H](C)CO)C[C@@H]1C,inactive,inactive,inactive
Cc1ccc(S(=O)(=O)Nc2cccc3c2O[C@H](CN(C)S(=O)(=O)c2ccc(F)cc2)[C@H](C)CN([C@H](C)CO)C3=O)cc1,inactive,inactive,inactive
COc1ccc(NC(=O)Nc2ccc3c(c2)C(=O)N([C@H](C)CO)C[C@@H](C)[C@H](CN(C)C(=O)Nc2ccc(F)cc2)OCCCC[C@@H](C)O3)cc1,inactive,inactive,inactive
NCc1cc(Oc2cccc(C(=O)N3C[C@@H](O)[C@H](F)C3)c2)nc(C(F)(F)F)c1,inactive,inactive,inactive
C[C@H]1CN([C@@H](C)CO)C(=O)c2cc(NC(=O)Nc3ccc(F)cc3)ccc2O[C@H]1CN(C)Cc1ccc(-c2ccccc2)cc1,inactive,inactive,inactive
C[C@@H]1CCCCO[C@@H](CN(C)C(=O)C2CCCCC2)[C@H](C)CN([C@H](C)CO)C(=O)c2cc(NS(=O)(=O)c3ccc(Cl)cc3)ccc2O1,inactive,inactive,inactive
C[C@H]1CN([C@@H](C)CO)C(=O)c2cccc(NC(=O)NC3CCCCC3)c2O[C@H]1CN(C)S(C)(=O)=O,inactive,inactive,inactive
C[C@@H]1CN([C@H](C)CO)C(=O)c2cc(C#CC3(O)CCCC3)cnc2O[C@H]1CN(C)S(=O)(=O)c1ccccc1,inactive,inactive,inactive
